Measured values: the supplement of paper PMC11876631
Changes are numbered by the printed parent chain. Names may count otherwise. ± gives the standard deviation of the averaged measurements. Laboratory Escherichia coli strains with one amino-acid change in an essential protein, pooled on minimal glucose agar with carbenicillin or gentamicin at twice the control MIC (plus kanamycin and chloramphenicol for the plasmids), 48 h. Fold change of barcode share against drug-free plates; higher = less susceptible. Active = above 20 in both replicates (the paper's putatively resistant). '<' = one read or none on drug, '>' = one read or none on a drug-free plate. Shares are relative, so most strains fall below 1 when a few take over. Listed are strains with at least 15 reads on both drug-free plates, and hits; most hits rest on fewer reference reads. Replicate rank correlation about 0.5. Edits are read from barcodes.

B1: aroC V339P (protein)
chain: MAGNTIGQLFRVTTFGESHGLALGCIVDGVPPGIPLTEADLQHDLDRRRPGTSRYTTQRREPDQVKILSGVFEGVTTGTSIGLLIENTDQRSQDYSAIKDVFRPGHADYTYEQKYGLRDYRGGGRSSARETAMRVAAGAIAKKYLAEKFGIEIRGCLTQMGDIPLDIKDWSQVEQNPFFCPDPDKIDALDELMRALKKEGDSIGAKVTVVASGVPAGLGEPVFDRLDADIAHALMSINAVKGVEIGDGFDVVALRGSQNRDEITKDGFQSNHAGGILGGISSGQQIIAHMALKPTSSITVPGRTINRFGEEVEMITKGRHDPCVGIRAVPIAEAMLAIPLMDHLLRQRAQNADVKTDIPRW
B2: aroC M341Q (protein)
chain: B1 chain with P339V, M341Q
B3: aroC M341A (protein)
chain: B1 chain with P339V, M341A
B4: lptG I19A (protein)
chain: MQPFGVLDRYIGKTIFTTAMMTLFMLVSLSGIIKFVDQLKKAGQGSYDALGAGMYTLLSVPKDVQIFFPMAALLGALLGLGMLAQRSELVVMQASGFTRMQVALSVMKTAIPLVLLTMAIGEWVAPQGEQMARNYRAQAMYGGSLLSTQQGLWAKDGNNFVYIERVKGDEELGGISIYAFNENRRLQSVRYAATAKFDPEHKVWRLSQVDESDLTNPKQITGSQTVSGTWKTNLTPDKLGVVALDPDALSISGLHNYVKYLKSSGQDAGRYQLNMWSKIFQPLSVAVMMLMALSFIFGPLRSVPMGVRVVTGISFGFVFYVLDQIFGPLTLVYGIPPIIGALLPSASFFLISLWLLMRKS
B5: lptA V121W (protein)
chain: MKFKTNKLSLNLVLASSLLAASIPAFAVTGDTDQPIHIESDQQSLDMQGNVVTFTGNVIVTQGTIKINADKVVVTRPGGEQGKEVIDGYGKPATFYQMQDNGKPVEGHASQMHYELAKDFWVLTGNAYLQQVDSNIKGDKITYLVKEQKMQAFSDKGKRVTTVLVPSQLQDKNNKGQTPAQKKGN
B6: lptA V121Q (protein)
chain: B5 chain with W121Q
B7: lptA I67A (protein)
chain: B5 chain with I67A, W121V
B8: lptA L123Q (protein)
chain: B5 chain with W121V, L123Q
B9: lptA I67Q (protein)
chain: B5 chain with I67Q, W121V
B10: lptA L45W (protein)
chain: B5 chain with L45W, W121V
B11: lptA L45Q (protein)
chain: B5 chain with L45Q, W121V
B12: lptA L123A (protein)
chain: B5 chain with W121V, L123A
B13: lptA L45P (protein)
chain: B5 chain with L45P, W121V
B14: lptA V74W (protein)
chain: B5 chain with V74W, W121V
B15: lptA V74A (protein)
chain: B5 chain with V74A, W121V
B16: lptA L45A (protein)
chain: B5 chain with L45A, W121V
B17: lptA V74Q (protein)
chain: B5 chain with V74Q, W121V
B18: lptA L123W (protein)
chain: B5 chain with W121V, L123W
B19: lptA I38A (protein)
chain: B5 chain with I38A, W121V

target: Escherichia coli (laboratory strain); assay: barcode share on antibiotic plates over drug-free plates; higher = less susceptible; details: antibiotic: carbenicillin; 2× MIC (3.1 µg/mL)
Description: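 A pool of E. coli strains, each edited to carry one amino-acid change in an essential protein, was grown for 48 h on minimal glucose agar with or without antibiotic; strain barcodes were sequenced; mean of two replicates.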

Protein | fold change of barcode share
B1 | 1.2 ± 0.23
B2 | 0.865 ± 0.42
B3 | 0.316 ± 0.097
B4 | 0.355 ± 0.091
B5 | 0.331 ± 0.098
B6 | 0.396 ± 0.068
B7 | 0.198 ± 0.12
B8 | 0.6973 ± 0.0036
B9 | 0.182 ± 0.042
B10 | 0.52 ± 0.12
B11 | 0.211 ± 0.088
B12 | 0.253 ± 0.028
B13 | 0.207 ± 0.22
B14 | 0.265 ± 0.11
B15 | 0.167 ± 0.024
B16 | 0.379 ± 0.014
B17 | 0.287 ± 0.018
B18 | 0.245 ± 0.03
B19 | 0.334 ± 0.14

same assay, conditions: antibiotic: gentamicin; 2× MIC (MIC 0.45 µg/mL)

Protein | fold change of barcode share
B3 | < 0.00744
B4 | 0.0196 ± 0.0048
B5 | 0.00544 ± 0.0035
B6 | 0.0155 ± 0.017
B7 | < 0.0156
B8 | 0.00392 ± 0.0017
B9 | < 0.0195
B11 | 0.0157 ± 0.012
B12 | 0.00352 ± 0.00067
B13 | 0.175 ± 0.22
B14 | 0.0134 ± 0.0092
B15 | < 0.00474
B17 | < 0.00692
B18 | 0.00571 ± 0.0042
B19 | 0.0205 ± 0.0049
